# Earlier results as cited in patent US5409948A (priority 1992, dated 1995).
# Conditions: Brufani et al. 1987; cited from earlier work
compound,measurement,value
CCCCCCCNC(=O)Oc1ccc2c(c1)[C@]1(C)CCN(C)[C@@H]1N2C [heptyl-Phy],lipophilicity vs parent compound,greater lipophilicity
